# PubChem BioAssay AID662 (National Center for Advancing Translational Sciences (NCATS), 2007)
# The whole screen tested about 71,000 compounds, of which about 1,800 (2.5%) were called active. The inconclusive results got no clear call from the source; some entries with a clear call stand among them for comparison. Calls come from the whole dose curve; as a rule, active = well fitted activation curve with a large enough effect in the signal ratio, with a control signal flat (not every such curve was filed as active); inconclusive = small, poorly fitted or top-dose-only effect, or effect the other way, or a change in a side signal; inactive = flat fitted curve, though single readings scatter; the % refers to the signal ratio. Where the call is inconclusive, the potency comes from a doubtful curve fit.
# Test: Cell signaling CRE-BLA (Fsk stim); for activity change, negative = inhibition: % of control where 0% means no effect
# Details: CHO CRE-bla reporter (cAMP response element driving beta-lactamase), forskolin EC10, beta-lactamase ratio
# How it was run: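 Reporter-gene assay: CHO cells with beta-lactamase behind cAMP responsive elements, co-treated with compound and EC10 NKH 477 for 3 hours at 37 degrees Celsius. Activity came from the 460/530 nm CCF4 emission ratio.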
# [1] = activity change, negative = inhibition: at 38.2 µM (top of the series) unless noted
# Potency is the fitted concentration of half-maximal effect; tags give direction and shape of the fitted curve.
structure (smiles),measurement,setting,value
O=[N+]([O-])c1ccc(CSc2ncnc3c2ncn3[C@@H]2O[C@@H](CO)[C@@H](O)[C@H]2O)cc1,"activity change, negative = inhibition",[1],inactive
CCOc1cc(/C=N/n2cnnc2)cc(Br)c1O,"activity change, negative = inhibition",[1],inactive
CCn1c(Cn2nnc(-c3ccccc3)n2)nnc1SCc1ccc(Cl)c(Cl)c1,"activity change, negative = inhibition",[1],inconclusive: -0.638%
c1ccc(-n2c(SCc3ccncc3)nnc2-c2ccco2)cc1,"activity change, negative = inhibition",[1],inactive
N#CCCCCn1c(-c2cncs2)nc2ccccc21,"activity change, negative = inhibition",[1],inconclusive: 30.5%
Nc1ccccc1O,Potency,[1],"inconclusive: 20 µM [falling, partial curve, poor fit]"
Clc1ccc(C(c2nnnn2C2CCCCC2)N(Cc2cccnc2)Cc2ccco2)cc1 (stereo not drawn),"activity change, negative = inhibition",[1],inactive
O=c1cc(C(F)(F)F)c2sc(N3CCCCC3)nc2[nH]1,"activity change, negative = inhibition",[1],inconclusive: 19.9%
O=C(c1oc2ccccc2c1CSCc1ccccc1)N1CCN(c2ncccn2)CC1,"activity change, negative = inhibition",[1],inconclusive: -12.3%
CCOC(=O)C(NC(=O)OC(C)C)(Nc1nccs1)C(F)(F)F (stereo not drawn),"activity change, negative = inhibition",[1],inconclusive: 13.4%
CCN(CC)S(=O)(=O)N1CCC(C(=O)NC2CCCC2)CC1,"activity change, negative = inhibition",[1],inconclusive: 1.86%
Cc1cc(C)n2nc(SCC(=O)c3ccc[nH]3)nc2n1,"activity change, negative = inhibition",[1],inconclusive: 26.6%
N#CC1=C2SCN(c3ccc(F)cc3)CN2C(=O)CC1c1cccc(F)c1 (stereo not drawn),"activity change, negative = inhibition",[1],inactive
CC(C)CC(C(=O)Nc1ccc2c(c1)OCCO2)N1C(=O)c2ccccc2C1=O (stereo not drawn),"activity change, negative = inhibition",[1],inactive
CCOC(=O)N1CCN(Cc2nc3c(c(=O)[nH]c(=O)n3C)n2CCCc2ccccc2)CC1,Potency,[1],"inconclusive: 10 µM [rising, single point]"
CC(C)n1nc(C(=O)Nc2nc3ccc(S(C)(=O)=O)cc3s2)c2ccccc2c1=O,Potency,[1],"inconclusive: 0.398 µM [rising, partial curve]"
COc1cc(NC(=O)c2cc(OC)c(OC)c(OC)c2)c(OC)cc1NC(=O)CN1CCCCC1,Potency,[1],"inconclusive: 12.6 µM [rising, partial curve]"
OC(Cn1cncn1)c1ccc(Cl)cc1 (stereo not drawn),"activity change, negative = inhibition",[1],inconclusive: -4.41%
Cc1cccc(-n2c(CCN3C(=O)c4ccccc4C3=O)nc3ccccc3c2=O)n1,Potency,[1],"inconclusive: 10 µM [rising, partial curve]"
COCCCN(C(=O)c1ccco1)c1nc(-c2cc(OC)ccc2OC)cs1,Potency,[1],"inconclusive: 10 µM [rising, partial curve]"
CCc1ccc(OC)c(S(=O)(=O)NCCOc2ccccc2)c1,"activity change, negative = inhibition",[1],inactive
Cc1cccn2c(=O)c3cc(C#N)c(=N)n(CCN4CCOCC4)c3nc12,"activity change, negative = inhibition",[1],inactive
CCCNc1nc2c(c(=O)[nH]c(=O)n2C)n1Cc1cccc(Br)c1,Potency,[1],"inconclusive: 3.98 µM [rising, full curve]"
COCCn1nnnc1C(c1cccs1)N1CCN(c2nc3ccccc3s2)CC1 (stereo not drawn),Potency,[1],"inconclusive: 0.1 µM [falling, single point]"
CC(C)Cc1cc(C(=O)Nc2sc3c(c2C#N)CCCC3)no1,"activity change, negative = inhibition",[1],inconclusive: 24.7%
COCC(C)n1c(C)cc(C(=O)COC(=O)c2c(C)nn(-c3ccccc3)c2C)c1C (stereo not drawn),Potency,[1],"inconclusive: 10 µM [rising, partial curve]"
CCOC(=O)Cn1c(CN(Cc2ccccc2)Cc2ccccc2)nc2c1c(=O)n(C)c(=O)n2C,"activity change, negative = inhibition",[1],inactive
Cn1cnc(S(=O)(=O)N2CCc3ccccc32)c1,"activity change, negative = inhibition",[1],inconclusive: -9.79%
N#CCCn1c(=O)cnc2cnc(Oc3ccccc3)nc21,"activity change, negative = inhibition",[1],inconclusive: 16.6%
O=C1N=C(O)CN1/N=C\c1ccc(-c2ccc([N+](=O)[O-])cc2)o1,"activity change, negative = inhibition",[1],inconclusive: -30.9%
same,"activity change, negative = inhibition",at 17.1 µM (top of the series),inactive: -4.69%
same,"activity change, negative = inhibition",at 38.2 µM (top of the series),inactive: -1.9%
Cc1csc(C(C#N)C(=O)c2ccncc2)n1 (stereo not drawn),"activity change, negative = inhibition",[1],inconclusive: 21.8%
CCN1CCN(C(c2cccs2)C(C)NC(=O)CC(C)C)CC1 (stereo not drawn),"activity change, negative = inhibition",[1],inconclusive: 1.06%
Cn1c(CSc2nc3ccccc3s2)nc2ccccc21,Potency,[1],"inconclusive: 10 µM [rising, single point]"
CCCCCCC(=O)N(O)C1CC(=O)N(c2ccc(Br)cc2)C1=O (stereo not drawn),Potency,[1],"inconclusive: 25.1 µM [rising, single point]"
Cc1ccc(Cn2c(=O)c3ccccc3n3c(SCC(=O)N4CCCCC4C)nnc23)cc1 (stereo not drawn),"activity change, negative = inhibition",[1],inconclusive: -0.252%
COC(=O)c1ccc(CSc2nnc(-c3ccncc3)n2Cc2ccccc2)o1,"activity change, negative = inhibition",[1],inactive
COc1ccccc1-c1nc(C#N)c(NCc2ccc(F)cc2)o1,Potency,[1],active: 12.6 µM
Cc1nc2ccccc2cc1C(=O)NCc1ccco1,"activity change, negative = inhibition",[1],inconclusive: 1.65%
O=C(NCCc1ccc2c(c1)OCO2)C1CCN(S(=O)(=O)c2ccc(Cl)cc2)CC1,"activity change, negative = inhibition",[1],inconclusive: -3.02%
COc1ccc(-c2nn(-c3ccccc3)cc2CO)cc1OC,Potency,[1],"inconclusive: 0.2 µM [rising, full curve, poor fit]"
Cc1ccc(N(C(=O)CNC(=O)c2ccco2)C(C(=O)NCC2CCCO2)c2ccccc2)cc1 (stereo not drawn),Potency,[1],"inconclusive: 3.98 µM [rising, single point]"
O=C(c1cc(-c2ccc3c(c2)OCO3)on1)N1CCN(c2ccc(F)cc2)CC1,"activity change, negative = inhibition",[1],inconclusive: -8.29%
Cc1nc(N2CCOCC2)c2nc(-c3ccccc3)n(CCN(C)C)c2n1,"activity change, negative = inhibition",[1],inactive
CCc1ccc2oc(=O)cc(CN3CCC(C)CC3)c2c1,Potency,[1],"inconclusive: 10 µM [rising, partial curve]"
Cc1cccc(Cn2c(CN3CCN(Cc4ccccc4)CC3)nc3c2c(=O)[nH]c(=O)n3C)c1,"activity change, negative = inhibition",[1],inactive
N#Cc1cnc(SCC(=O)c2ccccc2)nc1N,Potency,[1],"inconclusive: 5.01 µM [rising, single point]"
CCOC(=O)N1CCN(Cc2nc3c(c(=O)[nH]c(=O)n3C)n2Cc2cc(C)ccc2C)CC1,"activity change, negative = inhibition",[1],inconclusive: 4.88%
COc1ccc(-c2cc3nc(-c4ccccc4)cc(N4CCC5(CC4)OCCO5)n3n2)cc1,Potency,[1],"inconclusive: 10 µM [rising, partial curve]"
O=C(OCc1nnc(-c2ccccc2)o1)c1cc(=O)c2ccccc2o1,"activity change, negative = inhibition",[1],inconclusive: -1.89%
COc1ccc(S(=O)(=O)N2CCN(C(=O)c3cccs3)CC2)cc1OC,Potency,[1],"inconclusive: 12.6 µM [rising, single point]"
COC(=O)c1cnn2c(C)c(Cc3cccc(F)c3)c(C)nc12,Potency,[1],active: 12.6 µM
CNC(=O)c1cc2cc(OC)ccc2oc1=N,"activity change, negative = inhibition",[1],inconclusive: 19%
CCCCCn1c(SCc2ccncc2)nc2cc(C(=O)NCc3ccco3)ccc2c1=O,"activity change, negative = inhibition",[1],inconclusive: 27.6%
COc1ccc(S(=O)(=O)Cc2ccc(C(=O)N3CCN(c4ncccn4)CC3)o2)cc1,"activity change, negative = inhibition",[1],inconclusive: 23.4%
COc1ncc2nc(-c3ccc(F)cc3)c(=O)n(CCc3ccccc3)c2n1,Potency,[1],"inconclusive: 12.6 µM [rising, single point]"
Cc1cc(OCCCCCNCCO)cc(C)c1Cl,"activity change, negative = inhibition",[1],inconclusive: -12.5% [at 7.6 µM]
Nc1[nH]c(=O)nc2c1ncn2[C@H]1O[C@@H](CO)[C@@H](O)[C@@H]1O,"activity change, negative = inhibition",[1],inactive: 3.01% [at 7.6 µM]
CC(=O)N(C(C)=O)c1ccc2nc(C)[nH]c(=O)c2c1,"activity change, negative = inhibition",[1],inactive
COc1ccc(OC)c(NC(=O)C2=C(C)Nc3ncnn3C2c2cccs2)c1 (stereo not drawn),"activity change, negative = inhibition",[1],inactive
O=c1c(-c2ccc(F)c(F)c2)nc2cncnc2n1C1CC1,"activity change, negative = inhibition",[1],inconclusive: 24.9%
Cc1cccc(CNc2nc(-c3cccc(NS(C)(=O)=O)c3)nc3ccccc23)c1,"activity change, negative = inhibition",[1],inconclusive: -14.6%
O=C(CNS(=O)(=O)c1ccc(Br)s1)N1CCC(N2CCCCC2)CC1,"activity change, negative = inhibition",[1],inconclusive: 0.622%
Nc1cc(Cl)c(N)c(Cl)c1,"activity change, negative = inhibition",[1],inactive
CCN(CC)C[C@@H]1CCCCN1CC(=O)N1c2ccccc2C(=O)Nc2cccnc21,"activity change, negative = inhibition",[1],inactive
COc1ccc(C(=O)N2CCC3(CCN(C(=O)Nc4cccc(F)c4)CC3)CC2)cc1,"activity change, negative = inhibition",[1],inactive
CC(=O)C1=C(C)NC(SCC(=O)c2ccc(Cl)c(Cl)c2)=C(C#N)C1c1ccco1 (stereo not drawn),Potency,[1],"inconclusive: 2 µM [rising, full curve, poor fit]"
OC1c2ccccc2-c2nc3ccccc3cc21 (stereo not drawn),"activity change, negative = inhibition",[1],inactive
Cc1nc2cnc(Oc3ccccc3)nc2n(CCc2ccccc2)c1=O,"activity change, negative = inhibition",[1],inconclusive: 29.6%
CC(CCC(=O)O)(c1cc(Br)c(O)c(Br)c1)c1cc(Br)c(O)c(Br)c1,Potency,[1],"inconclusive: 3.98 µM [rising, single point]"
COC(=O)[C@@]1(Cc2ccc(OC)cc2)[C@H]2c3cc(C(=O)N4CCCC4)n(Cc4cc(C)n(C)n4)c3C[C@H]2CN1C(=O)c1ccccc1,"activity change, negative = inhibition",[1],inactive
Cc1cc(Br)c2c(c1)=C(c1sc(N3CCCCCC3)nc1O)C(=O)N=2,"activity change, negative = inhibition",[1],inconclusive: 45.3%
O=C(Nc1nnc(CCc2ccccc2)s1)C1CCCO1 (stereo not drawn),"activity change, negative = inhibition",[1],inconclusive: 27.5%
Cc1ccccc1CS(=O)(=O)Cc1ccc(C(=O)NCc2ccco2)o1,"activity change, negative = inhibition",[1],inconclusive: -13.1%
O=c1c2ccccc2sn1-c1ccc(S(=O)(=O)N2CCCCC2)cc1,Potency,[1],"inconclusive: 3.16 µM [falling, single point]"
Cc1[nH]c2ccc(S(N)(=O)=O)cc2c1C,Potency,[1],"inconclusive: 0.00316 µM [falling, full curve, poor fit]"
C=CCOC(=O)C1=C(C)NC(=O)NC1C1CC=CCC1 (stereo not drawn),"activity change, negative = inhibition",[1],inactive
O=C(O)CCCCn1cnc2c(=S)nc[nH]c21,"activity change, negative = inhibition",[1],inactive: 6.62% [at 7.6 µM]
Cc1ccc(S(=O)(=O)CCc2nnc(NC(=O)c3ccccn3)s2)cc1,"activity change, negative = inhibition",[1],inactive
O=C(Nc1cccnc1)c1cc(-c2ccc3c(c2)OCO3)on1,"activity change, negative = inhibition",[1],inconclusive: 8.08%
CCNC(=O)[C@@H]1O[C@@H](n2cnc3c(NCc4ccccc4)ncnc32)[C@@H](O)[C@H]1O,"activity change, negative = inhibition",[1],inactive
O=c1[nH]c2c(s1)C(c1ccco1)C1C3CCC(C3)C1S2 (stereo not drawn),Potency,[1],"inconclusive: 10 µM [rising, single point]"
